Several values for one entry are separate records, joined by “and”; a condition that tells them apart may be missing. Identical values can stand only once. Inconclusive means that the source gave no clear call. Such entries were picked first, then a sample of the others. For some of these results: A potency beside an inconclusive call is a rough fit, not a confirmed value. Activity calls are given as the source filed them. Unless noted, calls come from the whole dose curve.
Legend:
[1] = qHTS assay to identify small molecule antagonists of the estrogen receptor beta (ER-beta) signaling pathway - cell viability counter screen (AID 1259382; active = well fitted curve in the direction sought with a large enough effect in the repeat runs; inconclusive = weak or mixed curves; inactive = no such curve, though single readings can be large; an effect the other way counts as inactive or inconclusive; note: nearly all actives have a fitted effect of over 55% in size; note: potency is the fitted concentration of half-maximal effect)
Summary of the method: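 Cytotoxicity counter screen multiplexed with the beta-lactamase antagonist assay: GripTite HEK293T ER-beta-bla cells were treated 16 hr with test chemicals in the presence of 1nM 17-beta-estradiol, and viability was measured by CellTiter-Glo.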

[2] = qHTS assay to identify small molecule antagonists of the progesterone receptor (PR) signaling pathway - cell viability counter screen (AID 1346798; active = well fitted curve in the direction sought with a large enough effect in the repeat runs; inconclusive = weak or mixed curves; inactive = no such curve, though single readings can be large; an effect the other way counts as inactive or inconclusive; note: nearly all actives have a fitted effect of over 50% in size; note: potency is the fitted concentration of half-maximal effect)
Summary of the method: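 In the same plates used for the beta-lactamase readout, cell viability of compound- and R5020-treated PR-UAS-bla HEK293T cells (16 hr, 37C) was assessed by CellTiter-Glo luminescence.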

[3] = qHTS assay to identify small molecule agonists or antagonists of the thyroid stimulating hormone receptor (TSHR) signaling pathway - wild type cell line counter screen (AID 1259384); settings: HEK293 wild type, cAMP HTRF counter-screen; cAMP activity change: at 92.4 µM (top of the series), hits give high values unless noted; note: potency is the fitted concentration of half-maximal effect; for cAMP activity change: % is set by controls: 0 for no effect and ±100 for the full control effect
Summary of the method: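 Counter screen in untransfected Hek293: compounds (15-point titration, triplicate) plus phosphodiesterase inhibitor Ro20-1724 added after 18 h plating; 30 min RT. Intracellular cAMP via competitive d2/cryptate immunoassay, 1 h incubation.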

[4] = target: Thyrotropin receptor (Homo sapiens) (UniProt P16473); test: qHTS assay to identify small molecule antagonists of the thyroid stimulating hormone receptor (TSHR) signaling pathway (AID 1259385); settings: TSHR-HEK293 cAMP HTRF, TSH-stimulated antagonist mode; activity change, negative = inhibition: at 92.4 µM (top of the series) unless noted; note: nearly all actives have a fitted effect of over 20% in size; note: potency is the fitted concentration of half-maximal effect
Summary of the method: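 Antagonist mode: compound-treated TSHR-expressing HEK293 cells were stimulated with 1.5 ng/mL TSH (final) in presence of Ro20-1724 for 30 min at RT. HTRF cAMP detection after 1 h; each compound tested at 15 concentrations, triplicate.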

[5] = target: Progesterone receptor (Homo sapiens) (UniProt P06401); test: qHTS assay to identify small molecule antagonists of the progesterone receptor (PR) signaling pathway (AID 1346795; active = well fitted inhibition curve with a large enough effect in the signal ratio in the repeat runs, not every such curve was filed as active; inconclusive = weak or mixed curves; the % refers to the signal ratio; note: potency is the fitted concentration of half-maximal effect; for activity change, negative = inhibition: % is set by controls: 0 for no effect and ±100 for the full control effect); settings: PR-UAS-bla HEK293T, beta-lactamase FRET ratio, 16 h; activity change, negative = inhibition: at 92.4 µM (top of the series) unless noted
Summary of the method: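 Stimulus R5020 at 1 nM final; cells HEK293T PR-UAS-bla; medium with 2% charcoal-stripped FBS; compound exposure 16 hr at 37C, 5% CO2; detection by FRET beta-lactamase substrate, 2 hr, room temperature.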

[6] = qHTS assay to identify small molecule agonists of the progesterone receptor (PR) signaling pathway - cell viability counter screen (AID 1346799); note: nearly all actives have a fitted effect of over 45% in size; note: potency is the fitted concentration of half-maximal effect
Summary of the method: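 Multiplexed viability read: CellTiter-Glo luminescence, 30 min RT, following LiveBLAzer FRET measurement on PR-UAS-bla HEK293T cells exposed to compounds 16 hr.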

[7] = qHTS assay to identify small molecule agonists of the estrogen receptor alpha (ER-alpha) signaling pathway in the presence of an antagonist - cell viability counter screen (AID 1259386; active = well fitted curve in the direction sought with a large enough effect in the repeat runs; inconclusive = weak or mixed curves; inactive = no such curve, though single readings can be large; an effect the other way counts as inactive or inconclusive;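 note: cells exposed to compounds for 22 h at 37 °C before the viability read; % is set by controls: 0 for no effect and ±100 for the full control effect; nearly all actives have a fitted effect of over 30% in size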)
Summary of the method: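 Cytotoxicity was measured in parallel with the ERE-luciferase agonist screen, in the same wells. The cells were VM7Luc4E2, which endogenously express ER-alpha, and treatment was with compounds plus 10.0nM ICI-182,780 for 22hr.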

[8] = target: Estrogen receptor (Homo sapiens) (UniProt P03372); test: qHTS assay to identify small molecule agonists of the estrogen receptor alpha (ER-alpha) signaling pathway in the presence of an antagonist (AID 1259383); note: potency is the fitted concentration of half-maximal effect; nearly all actives have a fitted effect of over 15% in size
Summary of the method: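 Agonist-mode confirmation in the presence of the ER antagonist ICI-182,780 at 10.0nM final. Breast-derived VM7Luc4E2 reporter cells were exposed to compounds for 22hr, and ERE-driven luciferase was quantified by luminescence.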

[9] = qHTS assay to identify small molecule antagonists of the TGF-beta/Smad signaling pathway - cell viability counter screen (AID 1346824; active = well fitted curve in the direction sought with a large enough effect in the repeat runs; inconclusive = weak or mixed curves; inactive = no such curve, though single readings can be large; an effect the other way counts as inactive or inconclusive; note: nearly all actives have a fitted effect of over 50% in size; note: potency is the fitted concentration of half-maximal effect)
Summary of the method: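 Cytotoxicity counter-screen run in the same wells as the beta-lactamase Smad reporter read: CellTiter-Glo luminescence after 30 min at room temperature. HEK 293T SBE-bla cells had 5 hr compound exposure at 37 C with TGF-beta1 (0.25 ng/mL stock).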

[10] = qHTS assay to identify small molecule agonists of the TGF-beta/Smad signaling pathway (AID 1346859; active = well fitted activation curve with a large enough effect in the signal ratio in the repeat runs, not every such curve was filed as active; inconclusive = weak or mixed curves; the % refers to the signal ratio; note: % is set by controls: 0 for no effect and ±100 for the full control effect); settings: SBE-bla HEK293T, TGF-beta/Smad beta-lactamase reporter, 5 h; activation: at 76.8 µM (top of the series)
Summary of the method: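 Screening used HEK 293T SBE-bla cells at 4,000/well. Test agents: 5 hr, 37 C. Detection: FRET substrate, 2 hr RT, then excitation 405 nm with emissions at 460 and 530 nm.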

[11] = target: Progesterone receptor (Homo sapiens) (UniProt P06401); test: qHTS assay to identify small molecule agonists of the progesterone receptor (PR) signaling pathway (AID 1346784); settings: PR-UAS-bla HEK293T, beta-lactamase FRET ratio, 16 h; activation: at 92.4 µM (top of the series) unless noted; note: nearly all actives have a fitted effect of over 30% in size; note: potency is the fitted concentration of half-maximal effect; for activation: % is set by controls: 0 for no effect and ±100 for the full control effect
Summary of the method: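 Reporter assay, GripTite PR-UAS-bla HEK 293T cells: 16 hr exposure to DMSO-dissolved compounds at 37C, 5% CO2, in steroid-depleted (2% charcoal-stripped FBS) medium; beta-lactamase measured by FRET fluorescence.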

[12] = qHTS assay to identify small molecule agonists of the TGF-beta/Smad signaling pathway - cell viability counter screen (AID 1346829; active = well fitted curve in the direction sought with a large enough effect in the repeat runs; inconclusive = weak or mixed curves; inactive = no such curve, though single readings can be large; an effect the other way counts as inactive or inconclusive; note: potency is the fitted concentration of half-maximal effect; nearly all actives have a fitted effect of over 45% in size)
Summary of the method: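 Same-well cytotoxicity: CellTiter-Glo added after the 2 hr room-temperature beta-lactamase substrate step, luminescence measured 30 min later; cells had 5 hr of compound at 37 C.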
Tags give direction and shape of the fitted curve or compound fluorescence and quenching.

Chain of UniProt P06401 (P06401 whole entry, looked up): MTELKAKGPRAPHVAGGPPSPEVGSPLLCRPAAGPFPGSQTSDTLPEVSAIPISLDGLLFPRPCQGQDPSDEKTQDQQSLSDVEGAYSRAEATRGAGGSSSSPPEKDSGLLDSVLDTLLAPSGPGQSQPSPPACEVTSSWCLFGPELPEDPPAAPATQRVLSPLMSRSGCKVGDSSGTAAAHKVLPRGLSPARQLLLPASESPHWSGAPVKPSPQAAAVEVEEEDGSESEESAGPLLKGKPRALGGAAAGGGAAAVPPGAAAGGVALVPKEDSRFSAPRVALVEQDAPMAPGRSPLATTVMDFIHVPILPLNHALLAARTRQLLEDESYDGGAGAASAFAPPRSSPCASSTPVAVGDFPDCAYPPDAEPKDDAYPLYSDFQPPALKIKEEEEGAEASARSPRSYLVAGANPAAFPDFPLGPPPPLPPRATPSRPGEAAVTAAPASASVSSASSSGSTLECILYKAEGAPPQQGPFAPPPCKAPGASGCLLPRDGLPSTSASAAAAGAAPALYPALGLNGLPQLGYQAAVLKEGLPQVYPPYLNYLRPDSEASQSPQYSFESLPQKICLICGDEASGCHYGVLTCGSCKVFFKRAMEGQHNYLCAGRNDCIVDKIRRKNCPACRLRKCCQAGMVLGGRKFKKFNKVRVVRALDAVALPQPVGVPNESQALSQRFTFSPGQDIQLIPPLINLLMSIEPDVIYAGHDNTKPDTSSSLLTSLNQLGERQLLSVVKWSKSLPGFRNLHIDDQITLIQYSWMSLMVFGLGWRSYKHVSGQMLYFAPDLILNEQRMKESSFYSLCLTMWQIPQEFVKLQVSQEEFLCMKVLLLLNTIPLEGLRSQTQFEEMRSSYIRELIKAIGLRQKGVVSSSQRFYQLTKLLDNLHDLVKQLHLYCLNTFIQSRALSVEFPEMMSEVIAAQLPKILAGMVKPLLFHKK
Chain of UniProt P16473 (P16473 whole entry, looked up): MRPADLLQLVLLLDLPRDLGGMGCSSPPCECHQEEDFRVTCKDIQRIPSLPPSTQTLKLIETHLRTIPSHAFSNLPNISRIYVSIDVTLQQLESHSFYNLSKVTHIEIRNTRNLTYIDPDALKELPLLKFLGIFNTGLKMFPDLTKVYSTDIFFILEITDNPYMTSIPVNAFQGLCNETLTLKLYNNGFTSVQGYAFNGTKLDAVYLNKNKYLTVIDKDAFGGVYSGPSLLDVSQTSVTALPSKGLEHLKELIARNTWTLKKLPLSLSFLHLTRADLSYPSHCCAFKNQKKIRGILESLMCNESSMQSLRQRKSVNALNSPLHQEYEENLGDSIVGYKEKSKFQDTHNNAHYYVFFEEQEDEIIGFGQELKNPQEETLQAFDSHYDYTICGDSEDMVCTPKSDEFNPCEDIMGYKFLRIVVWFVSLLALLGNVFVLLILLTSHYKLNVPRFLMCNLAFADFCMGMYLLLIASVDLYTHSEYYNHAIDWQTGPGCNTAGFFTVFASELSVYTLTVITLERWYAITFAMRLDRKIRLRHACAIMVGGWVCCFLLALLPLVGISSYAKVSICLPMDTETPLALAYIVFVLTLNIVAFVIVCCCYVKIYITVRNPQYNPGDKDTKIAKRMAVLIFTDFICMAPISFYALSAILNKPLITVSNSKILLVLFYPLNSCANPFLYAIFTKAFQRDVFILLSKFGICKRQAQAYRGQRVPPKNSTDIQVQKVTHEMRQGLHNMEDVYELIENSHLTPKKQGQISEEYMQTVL
Chain of UniProt P03372 (P03372 whole entry, looked up): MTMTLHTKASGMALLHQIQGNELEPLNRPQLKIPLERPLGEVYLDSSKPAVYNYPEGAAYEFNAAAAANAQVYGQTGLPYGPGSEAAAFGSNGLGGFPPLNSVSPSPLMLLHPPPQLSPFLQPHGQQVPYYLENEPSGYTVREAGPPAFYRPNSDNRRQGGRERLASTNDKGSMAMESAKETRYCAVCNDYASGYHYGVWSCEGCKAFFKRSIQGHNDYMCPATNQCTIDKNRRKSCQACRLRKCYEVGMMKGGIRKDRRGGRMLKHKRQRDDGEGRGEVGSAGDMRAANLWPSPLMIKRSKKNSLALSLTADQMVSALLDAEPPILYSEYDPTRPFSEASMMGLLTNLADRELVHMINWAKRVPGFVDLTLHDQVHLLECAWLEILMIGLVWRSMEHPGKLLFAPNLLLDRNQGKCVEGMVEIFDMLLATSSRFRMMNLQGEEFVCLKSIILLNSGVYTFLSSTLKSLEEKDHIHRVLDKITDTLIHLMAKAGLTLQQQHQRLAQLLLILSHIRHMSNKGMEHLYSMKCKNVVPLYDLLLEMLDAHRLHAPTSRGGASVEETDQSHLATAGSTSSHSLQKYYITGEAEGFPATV

CCOC(=O)/C=C/C(=O)O
Potency [1]: inactive | Potency [2]: inconclusive: 17.2 µM [cytotoxic, partial curve]

CC(C)NCC(O)c1cc(O)cc(O)c1 (stereo not given)
Potency [3]: active: 8.1 µM | Potency [2]: inactive

CCCCCCCCCCCCOCCOS(=O)(=O)O
Potency [1]: inconclusive: 19.3 µM [cytotoxic, full curve] | Potency [4]: inconclusive: 61.1 µM | activity change, negative = inhibition [5]: inconclusive: -25.6% | Potency [6]: active: 27.3 µM

OCCSc1ccccc1
Potency [1]: inconclusive: 19.3 µM [cytotoxic, full curve] | Potency [5]: inconclusive: 27.3 µM [rising, partial curve] | Potency [2]: inconclusive: 13.7 µM [cytotoxic, partial curve] | Potency [6]: inconclusive: 10.9 µM [cytotoxic, full curve]

Brc1ccc(Oc2ccc(Br)cc2)cc1
Potency [4]: inconclusive: 30.6 µM and inconclusive: 54.5 µM

CCCCCCCC(=O)OCC
Potency [1]: inconclusive: 77 µM [rising, partial curve, poor fit] | Potency [7]: inactive

CCOCCO
Potency [3]: inactive | activity change, negative = inhibition [5]: inconclusive: 9.9% | Potency [6]: inconclusive: 70.5 µM [rising, single point]

O=C(OCCc1ccccc1)c1ccccc1
Potency [8]: inconclusive: 27.3 µM [activator, partial curve] | Potency [5]: inconclusive: 61.1 µM [falling, partial curve, poor fit] | Potency [6]: inconclusive: 38.6 µM [cytotoxic, partial curve, poor fit]

CCn1ccnc1CC1COc2ccccc2O1 (stereo not given)
Potency [1]: inactive | Potency [6]: inactive

CN1CCC[C@@H]1Cc1c[nH]c2ccc(CCS(=O)(=O)c3ccccc3)cc12
Potency [1]: inactive | Potency [5]: inactive | Potency [2]: inactive

Cc1ccc(C2OC[C@@H]3OC(c4ccc(C)cc4)O[C@H]([C@H](O)CO)[C@@H]3O2)cc1 (stereo not given in full)
Potency [1]: inactive | Potency [9]: inactive

CCN(CC)CC(=O)Nc1c(C)cccc1C
Potency [1]: inactive | Potency [5]: inactive

O=C(O)CCCC(=O)O
Potency [8]: inconclusive: 53.4 µM [activator, partial curve] | Potency [3]: inactive | Potency [6]: inconclusive: 4.76 µM [rising, partial curve]

Nc1ccnc(=O)[nH]1
Potency [1]: inactive | Potency [5]: inactive | Potency [9]: inconclusive: 12.2 µM [cytotoxic, single point]

CC1CCCCC1
Potency [4]: inconclusive: 68.6 µM

CC(O)CN(CCCN(C)C)CCCN(C)C (stereo not given)
Potency [1]: inactive | Potency [9]: inconclusive: 0.436 µM [cytotoxic, single point]

CC1=C(O)C(=O)OC1C (stereo not given)
Potency [1]: inactive | Potency [5]: inactive

CCCCNC(=O)NS(=O)(=O)c1ccc(N)cc1
Potency [1]: inactive | Potency [6]: inconclusive: 4.73 µM [rising, partial curve, poor fit]

CCCCCCCC(=O)OCC(O)CO (stereo not given)
Potency [1]: inactive | Potency [10]: inactive

C=CCOc1c(Br)cc(Br)cc1Br
Potency [1]: inactive | Potency [4]: inconclusive: 68.6 µM | Potency [11]: inactive | activity change, negative = inhibition [5]: inconclusive: -29.9% | Potency [6]: inactive

OCC(O)c1ccccc1 (stereo not given)
Potency [1]: inconclusive: 34.4 µM [cytotoxic, partial curve] | activity change, negative = inhibition [5]: inconclusive: -34.9% | Potency [2]: active: 19.3 µM | Potency [6]: inconclusive: 19.3 µM [cytotoxic, full curve]

C=C(C)CS(=O)(=O)O
Potency [4]: inactive

O=C(NCC1CN(c2ccc(N3CCOCC3=O)cc2)C(=O)O1)c1ccc(Cl)s1 (stereo not given)
Potency [1]: inconclusive: 26.6 µM [cytotoxic, partial curve, poor fit] | Potency [6]: inconclusive: 2.98 µM [cytotoxic, single point] | Potency [10]: inactive

CCCN(CCC)C(=O)C(CCC(=O)O)NC(=O)c1ccccc1 (stereo not given)
Potency [7]: inactive

CO[Si](CCCS)(OC)OC
Potency [4]: inactive | Potency [6]: inconclusive: 1.54 µM [cytotoxic, single point]

CCCCC(=O)O[C@]1(C(=O)CO)CC[C@H]2[C@@H]3CCC4=CC(=O)CC[C@]4(C)[C@H]3[C@@H](O)C[C@@]21C
Potency [4]: inconclusive: 26.6 µM [falling, partial curve] | Potency [11]: inconclusive: 0.0422 µM [falling, full curve]

C=C(C)C(=O)OC1CC(C)CC(C)(C)C1 (stereo not given)
Potency [4]: inconclusive: 6.86 µM [falling, single point] | Potency [5]: inactive

O=C1NC(=O)C2CC=CCC12 (stereo not given)
Potency [4]: inconclusive: 2.73 µM [falling, single point] | Potency [5]: inconclusive: 0.243 µM [rising, single point] | Potency [2]: inconclusive: 0.243 µM [cytotoxic, single point] | Potency [6]: inactive | Potency [12]: inconclusive: 0.195 µM [cytotoxic, single point]

Source: PubChem BioAssay (Tox21)
